Source: publication PMC6602471
This is one part of the list. At the low end of the ranking, values are background and their order means little.

Molecular target: T1, ETS1 (UniProt P14921)
T1 sequence: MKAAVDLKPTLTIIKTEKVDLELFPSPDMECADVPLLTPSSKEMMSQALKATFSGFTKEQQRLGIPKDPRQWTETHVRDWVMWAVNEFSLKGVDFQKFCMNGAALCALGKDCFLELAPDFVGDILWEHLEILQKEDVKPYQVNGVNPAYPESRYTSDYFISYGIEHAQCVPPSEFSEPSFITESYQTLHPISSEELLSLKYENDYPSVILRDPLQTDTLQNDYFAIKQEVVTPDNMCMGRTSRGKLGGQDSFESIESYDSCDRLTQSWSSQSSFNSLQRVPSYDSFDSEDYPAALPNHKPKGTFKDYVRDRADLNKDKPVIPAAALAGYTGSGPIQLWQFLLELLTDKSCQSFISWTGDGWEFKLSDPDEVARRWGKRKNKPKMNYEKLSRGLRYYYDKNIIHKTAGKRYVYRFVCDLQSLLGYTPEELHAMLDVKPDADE
Test: custom PBM
Conditions: custom protein-binding microarray; buffer, salt, pH and temperature not stated; high values mean tight binding; double strand, one strand shown

Sequence	binding signal (log fluorescence intensity)
TAAAGGGAAGACGGTTGTGGTAGTTCCGGGTATTTAGTCTTGATTCGCTTGACGCTGCTG	8.53
CAGCATAGGACTTCTTCCCTAAAGCAATTGATAACCGTCTTGATTCGCTTGACGCTGCTG	8.25
GCTGCTGCGGTGCATACCCCACCGGAAGTGACCCCGGTCTTGATTCGCTTGACGCTGCTG	11
CAGCATAGGACTTCTTCCCTGAAGCAATTGTTAACCGTCTTGATTCGCTTGACGCTGCTG	8.37
CTGGGACTTGACCCAACTCTGTCACGTGGGTCGTTTGTCTTGATTCGCTTGACGCTGCTG	8.23
GCTGCTGCGGTGCATACCCCACCGGATGTGACCCCTGTCTTGATTCGCTTGACGCTGCTG	10.1
TCCGGCCACCAGCTCCACCCACTTCAGGCCTTGTAGGTCTTGATTCGCTTGACGCTGCTG	8.2
TCCGGCAACCAGCTCCACCCACTTCAGGCCTTGTAGGTCTTGATTCGCTTGACGCTGCTG	8.2
TAAAGGGAAGACGGTTGTCGTAGTTCCGGGTATTAAGTCTTGATTCGCTTGACGCTGCTG	8.56
GATTAATTTCTGCCCTCATTCGCACGTGCCATAACAGTCTTGATTCGCTTGACGCTGCTG	8.11
CAGCATAGGACCTCTTCCCTGAAGCAATTGATAACCGTCTTGATTCGCTTGACGCTGCTG	8.07
TAAAGGGAAGACGGTTGAGGTAGTTCCGGGTATTAAGTCTTGATTCGCTTGACGCTGCTG	8.64
CAGCATAGGACTCCTTCCCTGAAGCAATTGATAACCGTCTTGATTCGCTTGACGCTGCTG	8.27
ATGTATAGGATCCCATCCAACACACGTGTTAAAATGGTCTTGATTCGCTTGACGCTGCTG	8.32
GTGTATAGGATCCCATCCAATACACGTGTTAAAATGGTCTTGATTCGCTTGACGCTGCTG	8.35
GGAAAAAGGCCCAGGGTACCACCGGAAGTGGGCTTAGTCTTGATTCGCTTGACGCTGCTG	11.6
TAAAGGGAAGACGGTTGTGGTTGTTCCGGGTATTAAGTCTTGATTCGCTTGACGCTGCTG	8.31
CAGCATAGGACTTCTTCCCTGAAGCAATTGATATCCGTCTTGATTCGCTTGACGCTGCTG	8.29
GTGTATAAGATCCCATCCAACACACGTGTTAAAATGGTCTTGATTCGCTTGACGCTGCTG	8.14
CAGCATAGGACTTCTTCCCTGAAGGAATTGATAACCGTCTTGATTCGCTTGACGCTGCTG	8.32
TACTGACTTATGTATGCGAATGCACATGAATAGACCGTCTTGATTCGCTTGACGCTGCTG	8.33
CAGCCTAGGACTTCTTCCCTGAAGCAATTGATAACCGTCTTGATTCGCTTGACGCTGCTG	8.09
GCTGCTGCGGTGCATACCCCACCGGATGAGACCCCGGTCTTGATTCGCTTGACGCTGCTG	8.54
